Experimental data as given in paper PMC4336329 (PLoS ONE, 2015).
In all, about 310,000 compounds went through this assay and about 14,000 (4.5%) showed an effect of 50% or more. Effects have a minus sign here. The list shows a part of the results.

biological target: human ether-à-go-go-related gene (hERG) potassium channel (human, UniProt Q12809); assay: primary screen, population patch clamp on CHO cells stably expressing hERG
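Also: peak tail current of the secondary pulse compared with the same well before compound.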

human ether-à-go-go-related gene (hERG) potassium channel, sequence (Q12809 whole entry, looked up): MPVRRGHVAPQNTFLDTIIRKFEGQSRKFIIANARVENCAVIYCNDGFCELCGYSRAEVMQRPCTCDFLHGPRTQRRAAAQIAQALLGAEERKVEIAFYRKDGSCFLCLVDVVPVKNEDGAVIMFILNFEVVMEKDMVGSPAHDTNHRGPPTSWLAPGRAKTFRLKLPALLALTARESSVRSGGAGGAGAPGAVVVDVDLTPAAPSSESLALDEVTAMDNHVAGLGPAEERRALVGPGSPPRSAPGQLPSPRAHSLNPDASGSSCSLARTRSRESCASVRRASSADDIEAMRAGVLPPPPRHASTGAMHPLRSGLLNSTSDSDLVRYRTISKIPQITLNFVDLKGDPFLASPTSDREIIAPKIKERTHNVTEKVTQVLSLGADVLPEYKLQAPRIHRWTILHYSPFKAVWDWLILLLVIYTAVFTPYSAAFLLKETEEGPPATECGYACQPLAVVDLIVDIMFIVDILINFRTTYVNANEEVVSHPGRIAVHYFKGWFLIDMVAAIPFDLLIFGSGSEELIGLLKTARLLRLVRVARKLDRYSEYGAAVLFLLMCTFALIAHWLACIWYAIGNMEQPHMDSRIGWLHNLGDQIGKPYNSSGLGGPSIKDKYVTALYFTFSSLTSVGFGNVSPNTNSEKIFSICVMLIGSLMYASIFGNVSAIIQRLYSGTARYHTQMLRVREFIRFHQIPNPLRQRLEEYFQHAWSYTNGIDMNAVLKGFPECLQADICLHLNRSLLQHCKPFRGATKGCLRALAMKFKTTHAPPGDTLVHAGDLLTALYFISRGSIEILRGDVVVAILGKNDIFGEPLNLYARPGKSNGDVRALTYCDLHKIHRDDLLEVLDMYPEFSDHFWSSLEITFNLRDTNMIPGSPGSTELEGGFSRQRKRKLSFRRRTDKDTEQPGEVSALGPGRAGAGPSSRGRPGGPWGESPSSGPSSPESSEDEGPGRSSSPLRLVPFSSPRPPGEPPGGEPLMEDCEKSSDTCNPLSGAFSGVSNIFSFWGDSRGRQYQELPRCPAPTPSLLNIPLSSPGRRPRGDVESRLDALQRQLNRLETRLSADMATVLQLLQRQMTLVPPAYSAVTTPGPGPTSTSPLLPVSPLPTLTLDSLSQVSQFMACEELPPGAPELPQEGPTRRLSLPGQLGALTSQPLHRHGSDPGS

| Compound | hERG current change (%, negative = inhibition) at 10uM [%] |
| --- | --- |
| O=C(COc1ccc(F)cc1)c1ccc2c(c1)CCCC2 | -5.65 |
| C#C[C@]1(O)CC[C@H]2[C@@H]3CCC4=Cc5nc6nc7ccccc7n6cc5C[C@]4(C)[C@H]3CC[C@@]21C | -56.8 |
| O=C(NO)c1ccccc1O | 13.1 |
| COc1ccc(C(=O)N/N=C/c2ccc(N3CCOCC3)o2)cc1OC | -12.6 |
| COc1ccc(NS(=O)(=O)c2cccc(NC(=O)c3cnccn3)c2)cc1Br | -0.864 |
| COc1cccc(-c2nnc(SCc3ccc(C#N)cc3)n2Cc2ccco2)c1 | -70.3 |
| COc1ccc(C2N(C(=O)N(C)C)CCN2S(=O)(=O)c2ccc(OC)cc2)cc1 (stereo not drawn) | -24.8 |
| CCOC(=O)C1=C(C)NC(=O)NC1c1cc(Br)c(O)c(OC)c1 (stereo not drawn) | -2.71 |
| O=[N+]([O-])c1cc([N+](=O)[O-])c(Oc2c(F)ccc(F)c2F)cc1NN1CCCCC1 | 19.8 |
| COc1ccc([C@H]2CC(=O)C=C(c3cc(C=O)ccc3OC)C2)cc1 | -29.9 |
| Cc1ccc(N2C(=O)c3n[nH]c(C)c3C2c2ccccn2)cc1 (stereo not drawn) | -5.29 |
| Cc1cc(-c2ccccc2)nc(N(C)NC(=O)c2cccc(C(F)(F)F)c2)c1S(C)(=O)=O | 10.5 |
| Cn1c(=O)c2c(nc(NCCCO)n2C/C=C/c2ccccc2)n(C)c1=O | -21 |
| S=C(N/N=C1\CCc2ccccc21)NC1CCCCC1 | -10.2 |
| C/C(CCC1CC(C)(C)OC1=O)=N\NC(N)=S (stereo not drawn) | -8.45 |
| CCOC(=O)N1CCN(C(=O)CSCC(=O)Nc2nc(-c3ccc4c(c3)OCO4)cs2)CC1 | -32.8 |
| O=C(OCc1ccc(Cl)c(Cl)c1)c1ccccn1 | -0.108 |
| Cc1ccc(NC(=O)c2cccc3c2C(=O)N(C2CCCCC2)C3)c(Cl)c1 | -3.98 |
| Cc1ccn2c(=O)nc(SCC(=O)Nc3cc(C)on3)nc2c1 | -17.4 |
| O=C(COC(=O)c1ccc(Br)o1)Nc1cccc(S(=O)(=O)N2CCCCCC2)c1 | -14.9 |
| CCOC(=O)C1CCN(CC(=O)Nc2ccc(OC)c(Cl)c2)CC1 | -12.5 |
| CCCCN(C(=O)NC(=O)Nc1cc(C)ccc1C)S(C)(=O)=O | 17.9 |
| COc1ccc(NC(=O)CCCN2C(=O)CCC2=O)cc1Cl | 1.72 |
| COc1ccc(OC)c2sc(NC(=O)C3COc4ccccc4O3)nc12 (stereo not drawn) | -2.7 |
